Data: the supplement of paper PMC5919970
Structures can show the parent of a compound that is named as a salt. Whole data set: some 2,000 compounds, median “fractional viability relative to vehicle” near 0.92, cut for the lowest 2% near 0.11. The list shows a part of the results.

Tested on: TYKNU
Assay: fractional viability relative to vehicle; TYKNU is a high-grade serous ovarian cancer line; higher = less growth inhibition
Details: 72 h, genotype: OPA1 knockout (sgOPA1 #2)
How it was run: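 TYKNU control cells or lentiCRISPRv2 knockout derivatives were seeded at 500 cells per well into drug-stamped 384-well plates holding a ~2100-compound library at 2 or 10 μM, in duplicate. Cells were grown at 37 °C in 5% CO2 in RPMI 1640 with 10% FBS, and drug treatment lasted 72 h. Viability was read by Cell Titer Glo luminescence. Duplicate treatment wells were averaged and normalised to duplicate control wells from the same plate position.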

| Structure (SMILES) | fractional viability (2uM) | fractional viability (10uM) |
| --- | --- | --- |
| NC(=O)Nc1sc(-c2ccc(F)cc2)cc1C(N)=O | 0.79 | 0.609 |
| C[C@@H]1O[C@@H](OC[C@H]2O[C@@H](Oc3c(-c4ccc(O)c(O)c4)oc4cc(O)cc(O)c4c3=O)[C@H](O)[C@@H](O)[C@@H]2O)[C@H](O)[C@H](O)[C@H]1O [Rutin] | 1.06 | 1.09 |
| Cc1nn(C)c(COc2ccc(N3CCN(S(=O)(=O)N(C)C)CC3)cc2)c1-c1cccc2c(CCCOc3cccc4ccccc34)c(C(=O)O)n(CCN3CCOCC3)c12 | 0.854 | 0.778 |
| CCCC(=O)Nc1ccc(OCC(O)CNC(C)C)c(C(C)=O)c1 (stereo not given) [Acebutolol HCl] | 1.04 | 0.998 |
| CN1[C@@H]2CC[C@H]1C[C@@H](OC(c1ccccc1)c1ccccc1)C2 [Benztropine mesylate] | 1.01 | 0.719 |
| CCCc1nc2c(C)cc(-c3nc4ccccc4n3C)cc2n1Cc1ccc(-c2ccccc2C(=O)O)cc1 [Telmisartan] | 1.13 | 1.15 |
| COCCCOc1cc(C[C@@H](C[C@H](N)[C@@H](O)C[C@H](C(=O)NCC(C)(C)C(N)=O)C(C)C)C(C)C)ccc1OC [Aliskiren Hemifumarate] | 1.13 | 0.937 |
| CC1=CC(=O)c2ccccc2C1=O [Menadione] | 0.94 | 0.75 |
| CC(=O)/N=c1/sc(S(N)(=O)=O)nn1C [Methazolamide] | 1.06 | 0.877 |
| Cc1ccc(C(=O)N(CCCN)[C@@H](c2nc3cc(Cl)ccc3c(=O)n2Cc2ccccc2)C(C)C)cc1 | 0.71 | 0.309 |
| COc1cc2ncnc(Nc3ccc(F)c(Cl)c3)c2cc1NC(=O)/C=C/CN1CCCCC1 | 0.824 | 0.135 |
| CCCCC1C(=O)N(c2ccccc2)N(c2ccccc2)C1=O [Phenylbutazone] | 0.963 | 1.36 |
| Nc1ncnc2c1nc(Br)n2[C@@H]1O[C@@H]2COP(=O)(O)O[C@H]2[C@H]1O [8-Bromo-cAMP] | 0.686 | 0.536 |
| CNCC[C@@H](Oc1ccccc1C)c1ccccc1 [Atomoxetine HCl] | 0.936 | 0.922 |
| Cc1ccc(C(=O)C(C)CN2CCCCC2)cc1 (stereo not given) [Tolperisone HCl] | 1.02 | 0.833 |
| C[C@@H](Oc1cc(-c2cnn(C3CCNCC3)c2)cnc1N)c1c(Cl)ccc(F)c1Cl | 1.09 | 0.316 |
| CCC(CC)(NC(=O)C(C)C)C(=O)N[C@@H](CCCN=C(N)N)C(=O)NC1(C(=O)NC(c2ccc(F)cc2)c2ccc(F)cc2)CCCC1 | 0.765 | 0.869 |
| Cc1cc(Nc2ncc(Cl)c(Nc3ccccc3S(=O)(=O)C(C)C)n2)c(OC(C)C)cc1C1CCNCC1 | 0.376 | 0.0286 |
| O=C(O)Cc1cc(I)c(Oc2ccc(O)c(I)c2)c(I)c1 [Tiratricol] | 1.02 | 0.798 |
| CC[C@H](C)C(=O)O[C@H]1C[C@H](O)C=C2C=C[C@H](C)[C@H](CC[C@@H](O)C[C@@H](O)CC(=O)O)[C@H]21 [Pravastatin sodium] | 1.04 | 0.986 |
| CC1=C(C(=O)O)N2C(=O)[C@@H](NC(=O)[C@H](N)c3ccccc3)[C@H]2SC1 [Cephalexin] | 0.947 | 0.968 |
| Nc1ccccc1NC(=O)c1ccc(CNc2nccc(-c3cccnc3)n2)cc1 [Mocetinostat (MGCD0103)] | 0.403 | 0.191 |
| COc1cc(-c2cc(-c3ccc(N4CCNCC4)cc3)cnc2C)cc(OC)c1OC | 0.878 | 0.835 |
| Cc1ccc(S(=O)(=O)/C=C/C#N)cc1 | 0.121 | 0.09 |

| Structure (SMILES) | fractional viability (2uM) | fractional viability (10uM) |
| --- | --- | --- |
| CC(C)(C)OC(=O)Nc1ccc(-c2cc(C(=O)NCCCCCCC(=O)NO)no2)cc1 | 0.367 | 0.171 |
| COc1cc2c(cc1Cc1cccc(Cl)c1F)c(=O)c(C(=O)O)cn2[C@H](CO)C(C)C [Elvitegravir (GS-9137, JTK-303)] | 0.948 | 0.608 |
| COc1ccc2cc3[n+](cc2c1OC)CCc1cc2c(cc1-3)OCO2 [Berberine HCl] | 1.06 | 0.791 |
| Cn1sc(=O)n(Cc2ccccc2)c1=O | 0.609 | 0.104 |
| Cc1nccn1CC1CCc2c(c3ccccc3n2C)C1=O (stereo not given) [Ondansetron HCl] | 1.01 | 1.07 |
| CC(=O)NC[C@H]1CN(c2ccc(N3CCOCC3)c(F)c2)C(=O)O1 [Linezolid] | 1.47 | 1.41 |
| COc1ccc2c(c1)c(CC(=O)OCC(=O)O)c(C)n2C(=O)c1ccc(Cl)cc1 [Acemetacin] | 0.993 | 1.01 |
| CN1CCN(c2ccc(Nc3cc(-c4cccc(-n5ccc6cc(C7CC7)cc(F)c6c5=O)c4CO)cn(C)c3=O)nc2)CC1 | 0.945 | 0.216 |
| CN(C)C(=O)c1cc2cnc(Nc3ccc(N4CCNCC4)cn3)nc2n1C1CCCC1 | 0.841 | 0.632 |
| CC(=O)O[C@]1(C(C)=O)CC[C@H]2[C@@H]3C=C(C)C4=CC(=O)CC[C@]4(C)[C@H]3CC[C@@]21C [Megestrol Acetate] | 1.24 | 1.02 |
| C=C1[C@H](CO)[C@@H](O)C[C@@H]1n1cnc2c(=O)[nH]c(N)nc21 [Entecavir Hydrate] | 1.01 | 0.935 |
| Nc1nnc(-c2cccc(Cl)c2Cl)c(N)n1 [Lamotrigine] | 1.1 | 0.883 |
| CCOC(=O)N[C@@H]1CC[C@@H]2[C@@H](C1)C[C@H]1C(=O)O[C@H](C)[C@H]1[C@H]2/C=C/c1ccc(-c2cccc(F)c2)cn1 [Vorapaxar] | 0.913 | 1.06 |
| Cc1cc(Nc2cc(CN3CCOCC3)c3nc(C)c(Cc4ccc(Cl)cc4F)n3n2)n[nH]1 | 1.09 | 0.499 |
| CC[C@@]1(O)C(=O)OCc2c1cc1n(c2=O)Cc2cc3c(CN(C)C)c(O)ccc3nc2-1 [Topotecan HCl] | 0.294 | 0.172 |
| Nc1nc(=O)[nH]cc1F [Flucytosine] | 1.28 | 1.2 |
| O=C(NC1CC1)c1cc(-c2cccs2)on1 [Isoxazole 9 (ISX-9)] | 0.794 | 0.676 |
| Oc1cc(O)cc(/C=C/c2ccc(O)c(O)c2)c1 [Piceatannol] | 0.858 | 0.737 |
| O=C(O)c1ccc(O)c2ncccc12 | 0.916 | 1.04 |
| COc1cc2ncnc(Nc3ccc(O)c(Br)c3)c2cc1OC | 1.37 | 1.19 |
| COc1cc(-c2cc(-c3cccc(O)c3)cnc2N)cc(OC)c1OC | 0.734 | 0.656 |
| CCCC(=O)Nc1cccc(NC(=O)c2ccccc2Br)c1 | 1 | 1.07 |
| CO[C@H]1C[C@@H]2CC[C@@H](C)[C@@](O)(O2)C(=O)C(=O)N2CCCC[C@H]2C(=O)O[C@H]([C@H](C)C[C@@H]2CC[C@H](n3cnnn3)[C@H](OC)C2)CC(=O)[C@H](C)/C=C(\C)[C@@H](O)[C@@H](OC)C(=O)[C@H](C)C[C@H](C)/C=C/C=C/C=C/1C [Zotarolimus(ABT-578)] | 0.954 | 1.03 |
| CCOc1nc2cccc(C(=O)OC(C)OC(=O)OC3CCCCC3)c2n1Cc1ccc(-c2ccccc2-c2nn[nH]n2)cc1 (stereo not given) [Candesartan Cilexetil] | 1.26 | 1.02 |

| Structure (SMILES) | fractional viability (2uM) | fractional viability (10uM) |
| --- | --- | --- |
| Nc1ccc(S(N)(=O)=O)cc1 [Sulfanilamide] | 1.13 | 0.969 |
| CCN1CCC[C@H]1CNC(=O)c1cc(S(N)(=O)=O)ccc1OC [Levosulpiride] | 1.07 | 0.94 |
| CCCNS(=O)(=O)Nc1ncnc(OCCOc2ncc(Br)cn2)c1-c1ccc(Br)cc1 [Macitentan] | 0.84 | 0.867 |
| CCC(C)(C)c1ccc(CC(C)CN2C[C@@H](C)O[C@@H](C)C2)cc1 (stereo not given in full) [Amorolfine HCl] | 1.08 | 0.827 |
| CC(C)N(CCC(=O)c1ccc2ccccc2c1)Cc1ccccc1 | 0.883 | 0.965 |
| CC(C)(C)C#Cc1cc(N(C(=O)[C@H]2CC[C@H](C)CC2)[C@H]2CC[C@H](O)CC2)c(C(=O)O)s1 [VX-222 (VCH-222, Lomibuvir)] | 1.08 | 0.884 |
| CCOC(=O)c1ccc(C#Cc2ccc3c(c2)C(C)(C)CCS3)nc1 [Tazarotene] | 0.949 | 0.769 |
| Cn1c(=O)c(F)c(Nc2ccc(I)cc2F)c2c(=O)n(C[C@@H](O)CO)cnc21 | 0.516 | 0.403 |
| COc1ccc(/C=C/C(=O)C2(C(=O)/C=C/c3ccc(OC)c(OC)c3)CCCCC2)cc1OC | 0.533 | 0.293 |
| COc1ccc(-c2cc3c(C)nc(N)nc3n([C@H]3CC[C@H](OCCO)CC3)c2=O)cn1 | 0.222 | 0.146 |
| NCc1c[nH]c(=S)n1[C@H]1CCc2c(F)cc(F)cc2C1 [Nepicastat (SYN-117) HCl] | 0.952 | 0.843 |
| CCCc1nc(C(C)(C)O)c(C(=O)OCc2oc(=O)oc2C)n1Cc1ccc(-c2ccccc2-c2nnn[nH]2)cc1 [Olmesartan Medoxomil] | 0.909 | 1.05 |
| Cn1c(=O)c2c(ncn2CC(O)CO)n(C)c1=O (stereo not given) [Dyphylline] | 1.08 | 1.1 |
| Nc1nccs1 [Aminothiazole] | 0.807 | 0.849 |
| NC(=O)c1cccnc1 [Nicotinamide (Vitamin B3)] | 0.925 | 0.968 |
| S=c1nc[nH]c2nc[nH]c12 [6-Mercaptopurine (6-MP) Monohydrate] | 0.93 | 0.846 |
| Cc1c(Cn2c(C)nc3c(C(=O)O)cc(N4CCOCC4)cc32)cccc1C(F)(F)F | 0.765 | 0.943 |
| O=C(NCc1ccc(Oc2ccccc2)cc1)c1nc(-c2cc(Br)c(O)c(Br)c2)no1 | 0.899 | 0.399 |
| CCCCCCCCCCCCCCCC[N+](C)(C)C [Cetrimonium Bromide (CTAB)] | 0.515 | 0.198 |
| COc1ccc(CNCc2cccc3ccccc23)cc1 | 1.06 | 0.875 |
| NC(=O)[C@@H](CCC(F)(F)F)N(Cc1ccc(-c2ncon2)cc1F)S(=O)(=O)c1ccc(Cl)cc1 | 0.85 | 0.744 |
| Cc1[nH]c(/C=C2\C(=O)Nc3ccc(S(=O)(=O)Cc4c(Cl)cccc4Cl)cc32)c(C)c1C(=O)N1CCC[C@@H]1CN1CCCC1 | 0.507 | 0.118 |
